In EPA's CvTdb concentration-time database:
Further values from the same series stand in other lists.

What was measured:
Assay in all cases: concentration in plasma after dosing
Rat [1] = conditions: dosed: Anthraquinone, 2 mg/kg, iv, Male, Harlan Sprague Dawley
Rat [2] = conditions: dosed: Anthraquinone, 2 mg/kg, iv, Male, Harlan Sprague Dawley; remark: listed apart in the source
Rat [3] = conditions: dosed: Anthraquinone, 2 mg/kg, iv, Male, Harlan Sprague Dawley; remark: listed apart in the source
Rat [4] = conditions: dosed: Anthraquinone, 2 mg/kg, iv, Male, Harlan Sprague Dawley; remark: listed apart in the source
Rat [5] = conditions: dosed: Anthraquinone, 2 mg/kg, iv, Female, Harlan Sprague Dawley
Rat [6] = conditions: dosed: Anthraquinone, 2 mg/kg, iv, Male, Harlan Sprague Dawley; remark: listed apart in the source
Rat [7] = conditions: dosed: Anthraquinone, 400 mg/kg, oral, Female, F344
Rat [8] = conditions: 2 min; dosed: Anthraquinone; 2 mg/kg; iv; Male; Harlan Sprague Dawley
Rat [9] = conditions: dosed: Anthraquinone, 2 mg/kg, iv, Male, Harlan Sprague Dawley; remark: listed apart in the source
Rat [10] = conditions: dosed: Anthraquinone, 2 mg/kg, iv, Male, Harlan Sprague Dawley; remark: listed apart in the source
Rat [11] = conditions: dosed: Anthraquinone, 2 mg/kg, iv, Male, Harlan Sprague Dawley; remark: listed apart in the source
Rat [12] = conditions: dosed: Anthraquinone, 2 mg/kg, iv, Male, Harlan Sprague Dawley; remark: listed apart in the source
Rat [13] = conditions: dosed: Anthraquinone, 2 mg/kg, iv, Male, Harlan Sprague Dawley; remark: listed apart in the source
Rat [14] = conditions: dosed: Anthraquinone, 2 mg/kg, iv, Male, Harlan Sprague Dawley; remark: listed apart in the source
Rat [15] = conditions: dosed: Anthraquinone, 400 mg/kg, oral, Male, F344
Rat [16] = conditions: dosed: Anthraquinone, 2 mg/kg, iv, Male, Harlan Sprague Dawley; remark: listed apart in the source
Rat [17] = conditions: dosed: Anthraquinone, 400 mg/kg, oral, Male, F344; remark: listed apart in the source
Rat [18] = conditions: dosed: Anthraquinone, 400 mg/kg, oral, Female, F344; remark: listed apart in the source
Rat [19] = conditions: dosed: Anthraquinone, 2 mg/kg, iv, Male, Harlan Sprague Dawley; remark: listed apart in the source
Rat [20] = conditions: dosed: Anthraquinone, 2 mg/kg, iv, Male, Harlan Sprague Dawley; remark: listed apart in the source
Rat [21] = conditions: dosed: Anthraquinone, 2 mg/kg, iv, Male, Harlan Sprague Dawley; remark: listed apart in the source
Rat [22] = conditions: dosed: Anthraquinone, 400 mg/kg, oral, Female, F344; remark: listed apart in the source
Rat [23] = conditions: dosed: Anthraquinone, 400 mg/kg, oral, Female, F344; remark: listed apart in the source
Rat [24] = conditions: 1 h; dosed: Anthraquinone; 2 mg/kg; iv; Male; Harlan Sprague Dawley
Rat [25] = conditions: dosed: Anthraquinone, 400 mg/kg, oral, Female, F344; remark: listed apart in the source
Rat [26] = conditions: dosed: Anthraquinone, 400 mg/kg, oral, Female, F344; remark: listed apart in the source
Rat [27] = conditions: dosed: Anthraquinone, 2 mg/kg, iv, Male, Harlan Sprague Dawley; remark: listed apart in the source
Rat [28] = conditions: dosed: Anthraquinone, 2 mg/kg, iv, Male, Harlan Sprague Dawley; remark: listed apart in the source
Rat [29] = conditions: dosed: Anthraquinone, 2 mg/kg, iv, Male, Harlan Sprague Dawley; remark: listed apart in the source
Rat [30] = conditions: dosed: Anthraquinone, 400 mg/kg, oral, Female, F344; remark: listed apart in the source
Rat [31] = system: Rat
Rat [32] = conditions: dosed: Anthraquinone, 400 mg/kg, oral, Female, F344; remark: listed apart in the source
Rat [33] = conditions: 3 h; dosed: Gemfibrozil; 4.29 mg/kg; iv; Male; Sprague-Dawley
Rat [34] = conditions: 10 h; dosed: Gemfibrozil; 4.29 mg/kg; iv; Male; Sprague-Dawley
Rat [35] = conditions: 15 h; dosed: Gemfibrozil; 100 mg/kg; oral; Male; Sprague-Dawley
Rat [36] = conditions: 18 h; dosed: Gemfibrozil; 4.29 mg/kg; iv; Male; Sprague-Dawley
Rat [37] = conditions: 18 h; dosed: Gemfibrozil; 4.29 mg/kg; iv; Male; Sprague-Dawley; remark: listed apart in the source
Rat [38] = conditions: 0.5 h; dosed: Gemfibrozil; 4.29 mg/kg; iv; Male; Sprague-Dawley
Rat [39] = conditions: 2 h; dosed: Gemfibrozil; 4.29 mg/kg; iv; Male; Sprague-Dawley
Rat [40] = conditions: 10 h; dosed: Gemfibrozil; 100 mg/kg; oral; Male; Sprague-Dawley
Rat [41] = conditions: 0.25 h; dosed: Gemfibrozil; 4.29 mg/kg; iv; Male; Sprague-Dawley
Rat [42] = conditions: 2 h; dosed: Gemfibrozil; 4.29 mg/kg; iv; Male; Sprague-Dawley; remark: listed apart in the source
Rat [43] = conditions: 4 h; dosed: Gemfibrozil; 4.29 mg/kg; iv; Male; Sprague-Dawley
Rat [44] = conditions: 4 h; dosed: Gemfibrozil; 4.29 mg/kg; iv; Male; Sprague-Dawley; remark: listed apart in the source
Rat [45] = conditions: 3 h; dosed: Gemfibrozil; 4.29 mg/kg; iv; Male; Sprague-Dawley; remark: listed apart in the source
Rat [46] = conditions: 1 h; dosed: Gemfibrozil; 4.29 mg/kg; iv; Male; Sprague-Dawley
Rat [47] = conditions: 10 h; dosed: Gemfibrozil; 100 mg/kg; oral; Male; Sprague-Dawley; remark: listed apart in the source
Rat [48] = conditions: 10 min; dosed: Gemfibrozil; 4.29 mg/kg; iv; Male; Sprague-Dawley
Rat [49] = conditions: 10 min; dosed: Gemfibrozil; 4.29 mg/kg; iv; Male; Sprague-Dawley; remark: listed apart in the source
Rat [50] = conditions: 1 h; dosed: Gemfibrozil; 4.29 mg/kg; iv; Male; Sprague-Dawley; remark: listed apart in the source
Rat [51] = conditions: 0.5 h; dosed: Gemfibrozil; 4.29 mg/kg; iv; Male; Sprague-Dawley; remark: listed apart in the source
Rat [52] = conditions: 24 h; dosed: Gemfibrozil; 4.29 mg/kg; iv; Male; Sprague-Dawley
Rat [53] = conditions: 5 min; dosed: Gemfibrozil; 4.29 mg/kg; iv; Male; Sprague-Dawley
Rat [54] = conditions: 5 min; dosed: Gemfibrozil; 4.29 mg/kg; iv; Male; Sprague-Dawley; remark: listed apart in the source
Rat [55] = conditions: 24 h; dosed: Gemfibrozil; 4.29 mg/kg; iv; Male; Sprague-Dawley; remark: listed apart in the source
Rat [56] = conditions: 15 h; dosed: Gemfibrozil; 4.29 mg/kg; iv; Male; Sprague-Dawley
Rat [57] = conditions: 15 h; dosed: Gemfibrozil; 100 mg/kg; oral; Male; Sprague-Dawley; remark: listed apart in the source
Rat [58] = conditions: 6 h; dosed: Gemfibrozil; 4.29 mg/kg; iv; Male; Sprague-Dawley
Rat [59] = conditions: 0.25 h; dosed: Gemfibrozil; 4.29 mg/kg; iv; Male; Sprague-Dawley; remark: listed apart in the source
Rat [60] = conditions: 15 h; dosed: Gemfibrozil; 4.29 mg/kg; iv; Male; Sprague-Dawley; remark: listed apart in the source
Rat [61] = conditions: 10 h; dosed: Gemfibrozil; 4.29 mg/kg; iv; Male; Sprague-Dawley; remark: listed apart in the source
Rat [62] = conditions: 6 h; dosed: Gemfibrozil; 4.29 mg/kg; iv; Male; Sprague-Dawley; remark: listed apart in the source

O=C1c2ccccc2C(=O)c2ccccc21 [Anthraquinone]
Conditions | concentration in plasma [ng/mL]
Rat [1], 5 h | 88
Rat [1], 20 min | 443
Rat [2], 1 h | 137
Rat [2], 40 min | 147
Rat [3], 5 h | 79
Rat [3], 20 min | 425
Rat [4], 2 min | 4180
Rat [4], 10 h | 42
Rat [5], 7.5 h | 43
Rat [5], 10 min | 693
Rat [6], 7.5 h | 60
Rat [6], 10 min | 1060
Rat [7], 1 h | 220
Rat [7], 18 h | 3920
Rat [9], 2 min | 4580
Rat [9], 10 h | 51
Rat [10], 1 h | 197
Rat [10], 2 h | 73
Rat [11], 2 min | 2270
Rat [11], 10 h | 46
Rat [12], 7.5 h | 44
Rat [12], 10 min | 681
Rat [13], 1 h | 165
Rat [13], 2 h | 112
Rat [14], 5 h | 81
Rat [14], 20 min | 448
Rat [15], 4 h | 412
Rat [15], 8 h | 1600
Rat [16], 1 h | 168
Rat [16], 40 min | 221
Rat [17], 4 h | 628
Rat [17], 8 h | 1830
Rat [18], 0.5 h | 138
Rat [18], 24 h | 2390
Rat [19], 7.5 h | 59
Rat [19], 10 min | 850
Rat [20], 5 h | 63
Rat [20], 20 min | 353
Rat [21], 5 h | 75
Rat [21], 20 min | 442
Rat [22], 0.5 h | 183
Rat [22], 24 h | 2920
Rat [23], 2 h | 403
Rat [23], 12 h | 3270
Rat [25], 4 h | 393
Rat [25], 8 h | 1500
Rat [26], 4 h | 395
Rat [26], 8 h | 2220
Rat [27], 2 h | 79
Rat [27], 40 min | 272
Rat [28], 2 h | 68
Rat [28], 40 min | 242
Rat [29], 2 h | 84
Rat [29], 40 min | 202
Rat [30], 1 h | 208
Rat [30], 18 h | 2460
Rat [32], 2 h | 231
Rat [32], 12 h | 2550

Conditions | concentration in plasma [ng/mL]
Rat [8] | 1310
Rat [24] | 184

concentration in plasma [ng/mL], Rat [31], dosed: Anthraquinone
Conditions | Female | Male
0.5 h, 400 mg/kg, oral, F344 | 106 | –
1 h, 2 mg/kg, iv, Harlan Sprague Dawley | – | 199
1 h, 400 mg/kg, oral, F344 | 162 | –
2 h, 2 mg/kg, iv, Harlan Sprague Dawley | – | 135
2 h, 400 mg/kg, oral, F344 | 318 | 236
2 min, 2 mg/kg, iv, Harlan Sprague Dawley | 4080 | 2200
4 h, 400 mg/kg, oral, F344 | 638 | 419
5 h, 2 mg/kg, iv, Harlan Sprague Dawley | – | 70
7.5 h, 2 mg/kg, iv, Harlan Sprague Dawley | 33 | 43
8 h, 400 mg/kg, oral, F344 | 2260 | 1700
10 min, 2 mg/kg, iv, Harlan Sprague Dawley | 557 | 1040
12 h, 400 mg/kg, oral, F344 | 2860 | 2060
18 h, 400 mg/kg, oral, F344 | 2870 | –
20 min, 2 mg/kg, iv, Harlan Sprague Dawley | – | 543
24 h, 400 mg/kg, oral, F344 | 2890 | –
40 min, 2 mg/kg, iv, Harlan Sprague Dawley | – | 289

Cc1ccc(C)c(OCCCC(C)(C)C(=O)O)c1 [Gemfibrozil]
Conditions | concentration in plasma [ng/mL]
Rat [33] | 548
Rat [34] | 124
Rat [35] | 7240
Rat [36] | 114
Rat [37] | 106
Rat [38] | 503
Rat [39] | 406
Rat [40] | 5000
Rat [41] | 2730
Rat [42] | 166
Rat [43] | 543
Rat [44] | 514
Rat [45] | 92.5
Rat [46] | 70.5
Rat [47] | 6950
Rat [48] | 7360
Rat [49] | 3680
Rat [50] | 81.3
Rat [51] | 452
Rat [52] | 72.3
Rat [53] | 15500
Rat [54] | 18700
Rat [55] | 120
Rat [56] | 278
Rat [57] | 1460
Rat [58] | 460
Rat [59] | 2700
Rat [60] | 119
Rat [61] | 146
Rat [62] | 480

Rat [31], dosed: Gemfibrozil, Male, Sprague-Dawley
Conditions | concentration in plasma [ng/mL]
0.25 h, 4.29 mg/kg, iv | 4450
0.5 h, 4.29 mg/kg, iv | 691
1 h, 4.29 mg/kg, iv | 554
1 h, 100 mg/kg, oral | 25000
2 h, 4.29 mg/kg, iv | 465
3 h, 4.29 mg/kg, iv | 284
4 h, 4.29 mg/kg, iv | 236
5 min, 4.29 mg/kg, iv | 14900
6 h, 4.29 mg/kg, iv | 207
10 h, 4.29 mg/kg, iv | 214
10 h, 100 mg/kg, oral | 8640
10 min, 4.29 mg/kg, iv | 2330
15 h, 4.29 mg/kg, iv | 114
15 h, 100 mg/kg, oral | 4190
18 h, 4.29 mg/kg, iv | 81.2
24 h, 4.29 mg/kg, iv | 119
